From the supplement of paper PMC8728848
This is one part of the list.

What was measured:
Assay in all cases: glycan array binding signal (z-score within array); higher = stronger binding
Details in all cases: glycan notation: IUPAC condensed, linker removed
Neu5Ac(a2-3)Gal(b1-4)Glc = target: Neu5Ac(a2-3)Gal(b1-4)Glc
Summary of the method: (§1)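 Glycan array data came from 3228 arrays in the Consortium for Functional Glycomics database, and only arrays with an available protein sequence were kept. Glycan names were put into IUPAC-condensed notation, and columns mapping to the same glycan were averaged. The binding signal is a within-array Z-score, averaged across arrays of one protein sequence run at different concentrations or buffers and across linkers. A negative Z-score can be read as non-binding.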

[1] = target: Neu5Ac(a2-3)Gal(b1-4)GlcNAc
Summary of the method: as §1

[2] = target: Neu5Ac(a2-3)Gal(b1-4)GlcNAc(b1-2)Man
Summary of the method: as §1

[3] = target: Neu5Ac(a2-3)Gal(b1-4)GlcNAc(b1-2)Man(a1-3)[GlcNAc(b1-4)][Neu5Ac(a2-3)Gal(b1-4)GlcNAc(b1-2)Man(a1-6)]Man(b1-4)GlcNAc(b1-4)GlcNAc
Summary of the method: as §1

[4] = target: Neu5Ac(a2-3)Gal(b1-4)GlcNAc(b1-2)Man(a1-3)[Neu5Ac(a2-3)Gal(b1-4)GlcNAc(b1-2)Man(a1-6)]Man(b1-4)GlcNAc(b1-4)GlcNAc
Summary of the method: as §1

[5] = target: Neu5Ac(a2-3)Gal(b1-4)GlcNAc(b1-2)Man(a1-3)[Neu5Ac(a2-3)Gal(b1-4)GlcNAc(b1-2)Man(a1-6)]Man(b1-4)GlcNAc(b1-4)[Fuc(a1-6)]GlcNAc
Summary of the method: as §1

[6] = target: Neu5Ac(a2-3)Gal(b1-4)GlcNAc(b1-2)Man(a1-3)[Neu5Ac(a2-6)Gal(b1-4)GlcNAc(b1-2)Man(a1-6)]Man(b1-4)GlcNAc(b1-4)GlcNAc
Summary of the method: as §1

[7] = target: Neu5Ac(a2-3)Gal(b1-4)GlcNAc(b1-2)[Neu5Ac(a2-3)Gal(b1-4)GlcNAc(b1-4)]Man(a1-3)[GlcNAc(b1-4)][Neu5Ac(a2-3)Gal(b1-4)GlcNAc(b1-2)[Neu5Ac(a2-3)Gal(b1-4)GlcNAc(b1-6)]Man(a1-6)]Man(b1-4)GlcNAc(b1-4)GlcNAc
Summary of the method: as §1

[8] = target: Neu5Ac(a2-3)Gal(b1-4)GlcNAc(b1-2)[Neu5Ac(a2-3)Gal(b1-4)GlcNAc(b1-4)]Man(a1-3)[GlcNAc(b1-4)][Neu5Ac(a2-3)Gal(b1-4)GlcNAc(b1-4)Man(a1-6)]Man(b1-4)GlcNAc(b1-4)GlcNAc
Summary of the method: as §1

[9] = target: Neu5Ac(a2-3)Gal(b1-4)GlcNAc(b1-2)[Neu5Ac(a2-3)Gal(b1-4)GlcNAc(b1-6)]Man(a1-6)[Neu5Ac(a2-3)Gal(b1-4)GlcNAc(b1-2)Man(a1-3)]Man(b1-4)GlcNAc(b1-4)GlcNAc
Summary of the method: as §1

[10] = target: Neu5Ac(a2-3)Gal(b1-4)GlcNAc(b1-2)[Neu5Ac(a2-3)Gal(b1-4)GlcNAc(b1-6)]Man(a1-6)[Neu5Ac(a2-3)Gal(b1-4)GlcNAc(b1-2)Man(a1-3)][GlcNAc(b1-4)]Man(b1-4)GlcNAc(b1-4)GlcNAc
Summary of the method: as §1

[11] = target: Neu5Ac(a2-3)Gal(b1-4)GlcNAc(b1-3)Gal
Summary of the method: as §1

[12] = target: Neu5Ac(a2-3)Gal(b1-4)GlcNAc(b1-3)Gal(b1-3)GlcNAc
Summary of the method: as §1

[13] = target: Neu5Ac(a2-3)Gal(b1-4)GlcNAc(b1-3)Gal(b1-4)GlcNAc
Summary of the method: as §1

[14] = target: Neu5Ac(a2-3)Gal(b1-4)GlcNAc(b1-3)Gal(b1-4)GlcNAc(b1-2)Man(a1-3)[Neu5Ac(a2-3)Gal(b1-4)GlcNAc(b1-3)Gal(b1-4)GlcNAc(b1-2)Man(a1-6)]Man(b1-4)GlcNAc(b1-4)GlcNAc
Summary of the method: as §1

[15] = target: Neu5Ac(a2-3)Gal(b1-4)GlcNAc(b1-3)Gal(b1-4)GlcNAc(b1-3)Gal(b1-4)GlcNAc
Summary of the method: as §1

[16] = target: Neu5Ac(a2-3)Gal(b1-4)GlcNAc(b1-3)Gal(b1-4)GlcNAc(b1-3)Gal(b1-4)GlcNAc(b1-2)Man(a1-3)[Neu5Ac(a2-3)Gal(b1-4)GlcNAc(b1-3)Gal(b1-4)GlcNAc(b1-3)Gal(b1-4)GlcNAc(b1-2)Man(a1-6)]GalNAc
Summary of the method: as §1

[17] = target: Neu5Ac(a2-3)Gal(b1-4)GlcNAc(b1-3)Gal(b1-4)GlcNAc(b1-3)GalNAc
Summary of the method: as §1

[18] = target: Neu5Ac(a2-3)Gal(b1-4)GlcNAc(b1-3)Gal(b1-4)GlcNAc(b1-3)[Neu5Ac(a2-3)Gal(b1-4)GlcNAc(b1-3)Gal(b1-4)GlcNAc(b1-6)]GalNAc
Summary of the method: as §1

[19] = target: Neu5Ac(a2-3)Gal(b1-4)GlcNAc(b1-3)Gal(b1-4)GlcNAc(b1-6)[Gal(b1-3)]GalNAc
Summary of the method: as §1

[20] = target: Neu5Ac(a2-3)Gal(b1-4)GlcNAc(b1-3)Gal(b1-4)[Fuc(a1-3)]GlcNAc
Summary of the method: as §1

[21] = target: Neu5Ac(a2-3)Gal(b1-4)GlcNAc(b1-3)GalNAc
Summary of the method: as §1

[22] = target: Neu5Ac(a2-3)Gal(b1-4)GlcNAc(b1-3)[Neu5Ac(a2-3)Gal(b1-4)GlcNAc(b1-6)]GalNAc
Summary of the method: as §1

[23] = target: Neu5Ac(a2-3)Gal(b1-4)GlcNAc(b1-6)GalNAc
Summary of the method: as §1

[24] = target: Neu5Ac(a2-3)Gal(b1-4)GlcNAc(b1-6)[Gal(b1-3)]GalNAc
Summary of the method: as §1

[25] = target: Neu5Ac(a2-3)Gal(b1-4)GlcNAc(b1-6)[Neu5Ac(a2-3)Gal(b1-3)]GalNAc
Summary of the method: as §1

[26] = target: Neu5Ac(a2-3)Gal(b1-4)GlcNAc6S
Summary of the method: as §1

[27] = target: Neu5Ac(a2-3)Gal(b1-4)[Fuc(a1-3)]GlcNAc
Summary of the method: as §1

[28] = target: Neu5Ac(a2-3)Gal(b1-4)[Fuc(a1-3)]GlcNAc(b1-2)Man
Summary of the method: as §1

[29] = target: Neu5Ac(a2-3)Gal(b1-4)[Fuc(a1-3)]GlcNAc(b1-3)Gal
Summary of the method: as §1

[30] = target: Neu5Ac(a2-3)Gal(b1-4)[Fuc(a1-3)]GlcNAc(b1-3)Gal(b1-4)GlcNAc
Summary of the method: as §1

[31] = target: Neu5Ac(a2-3)Gal(b1-4)[Fuc(a1-3)]GlcNAc(b1-3)Gal(b1-4)[Fuc(a1-3)]GlcNAc(b1-3)Gal(b1-4)[Fuc(a1-3)]GlcNAc
Summary of the method: as §1

[32] = target: Neu5Ac(a2-3)Gal(b1-4)[Fuc(a1-3)]GlcNAc(b1-3)GalNAc
Summary of the method: as §1

[33] = target: Neu5Ac(a2-3)Gal(b1-4)[Fuc(a1-3)]GlcNAc(b1-6)[Gal(b1-3)]GalNAc
Summary of the method: as §1

[34] = target: Neu5Ac(a2-3)Gal(b1-4)[Fuc(a1-3)]GlcNAc(b1-6)[Neu5Ac(a2-3)Gal(b1-3)]GalNAc
Summary of the method: as §1

[35] = target: Neu5Ac(a2-3)Gal(b1-4)[Fuc(a1-3)]GlcNAc6S
Summary of the method: as §1

[36] = target: Neu5Ac(a2-3)Gal6S(b1-4)GlcNAc
Summary of the method: as §1

[37] = target: Neu5Ac(a2-3)Gal6S(b1-4)[Fuc(a1-3)]GlcNAc
Summary of the method: as §1

B1: Cohesin-hLangerin (Homo sapiens) (protein)
chain: LDDLDAVRIKVDTVNAKPGDTVRIPVRFSGIPSKGIANCDFVYSYDPNVLEIIEIEPGDIIVDPNPDKSFDTAVYPDRKIIVFLFAEDSGTGAYAITKDGVFATIVAKVKEGAPNGLSVIKFVEVGGFANNDLVEQKTQFFDGGANVGDTTEPATPTTPVTTPTTTDDLDAASYPRFMGTISDVKTNVQLLKGRVDNISTLDSEIKKNSDGMEAAGVQIQMVNESLGYVRSQFLKLKTSVEKANAQIQILTRSWEEVSTLNAQIPELKSDLEKASALNTKIRALQGSLENMSKLLKRQNDILQVVSQGWKYFKGNFYYFSLIPKTWYSAEQFCVSRNSHLTSVTSESEQEFLYKTAGGLIYWIGLTKAGMEGDWSWVDDTPFNKVQSARFWIPGEPNNAGNNEHCGNIKAPSLQAWNDAPCDKTFLFICKRPYVPSEPHHHHHH
glycan array binding signal (z-score) (Neu5Ac(a2-3)Gal(b1-4)Glc): -0.319 | glycan array binding signal (z-score) [1]: -0.425 | glycan array binding signal (z-score) [2]: 0.365 | glycan array binding signal (z-score) [3]: -0.437 | glycan array binding signal (z-score) [4]: -0.437 | glycan array binding signal (z-score) [5]: -0.442 | glycan array binding signal (z-score) [6]: -0.442 | glycan array binding signal (z-score) [7]: -0.417 | glycan array binding signal (z-score) [8]: -0.445 | glycan array binding signal (z-score) [9]: 2.92 | glycan array binding signal (z-score) [10]: -0.447 | glycan array binding signal (z-score) [11]: -0.364 | glycan array binding signal (z-score) [12]: -0.425 | glycan array binding signal (z-score) [13]: -0.398 | glycan array binding signal (z-score) [14]: -0.193 | glycan array binding signal (z-score) [15]: -0.419 | glycan array binding signal (z-score) [16]: 0.442 | glycan array binding signal (z-score) [17]: -0.271 | glycan array binding signal (z-score) [18]: -0.325 | glycan array binding signal (z-score) [19]: -0.387 | glycan array binding signal (z-score) [20]: -0.425 | glycan array binding signal (z-score) [21]: -0.278 | glycan array binding signal (z-score) [22]: -0.381 | glycan array binding signal (z-score) [23]: -0.26 | glycan array binding signal (z-score) [24]: -0.112 | glycan array binding signal (z-score) [25]: -0.435 | glycan array binding signal (z-score) [26]: -0.432 | glycan array binding signal (z-score) [27]: -0.361 | glycan array binding signal (z-score) [28]: -0.412 | glycan array binding signal (z-score) [29]: -0.421 | glycan array binding signal (z-score) [30]: -0.217 | glycan array binding signal (z-score) [31]: -0.186 | glycan array binding signal (z-score) [32]: 0.356 | glycan array binding signal (z-score) [33]: -0.444 | glycan array binding signal (z-score) [34]: -0.312 | glycan array binding signal (z-score) [35]: -0.42 | glycan array binding signal (z-score) [36]: 2.21 | glycan array binding signal (z-score) [37]: 3.69
